# Test results published in article PMC4336329 (PLoS ONE, 2015).
# Out of some 310,000 compounds screened, about 2,200 (0.71%) showed an effect of 50% or more. Effects have a minus sign here. Some of the results follow. Where a SMILES comes first, the peptide text is derived from it. [ ]: non-standard residue; d: D form. The star is where a group is joined. ξ: configuration not given here. ξF = NC(Cc1ccccc1)C(=O)O; Cbz = O=C(OCc1ccccc1)*
# Biological target: human ether-à-go-go-related gene (hERG) potassium channel (human, UniProt Q12809)
# Assay: primary screen, population patch clamp on CHO cells stably expressing hERG
# Sequence of human ether-à-go-go-related gene (hERG) potassium channel (Q12809 whole entry, looked up): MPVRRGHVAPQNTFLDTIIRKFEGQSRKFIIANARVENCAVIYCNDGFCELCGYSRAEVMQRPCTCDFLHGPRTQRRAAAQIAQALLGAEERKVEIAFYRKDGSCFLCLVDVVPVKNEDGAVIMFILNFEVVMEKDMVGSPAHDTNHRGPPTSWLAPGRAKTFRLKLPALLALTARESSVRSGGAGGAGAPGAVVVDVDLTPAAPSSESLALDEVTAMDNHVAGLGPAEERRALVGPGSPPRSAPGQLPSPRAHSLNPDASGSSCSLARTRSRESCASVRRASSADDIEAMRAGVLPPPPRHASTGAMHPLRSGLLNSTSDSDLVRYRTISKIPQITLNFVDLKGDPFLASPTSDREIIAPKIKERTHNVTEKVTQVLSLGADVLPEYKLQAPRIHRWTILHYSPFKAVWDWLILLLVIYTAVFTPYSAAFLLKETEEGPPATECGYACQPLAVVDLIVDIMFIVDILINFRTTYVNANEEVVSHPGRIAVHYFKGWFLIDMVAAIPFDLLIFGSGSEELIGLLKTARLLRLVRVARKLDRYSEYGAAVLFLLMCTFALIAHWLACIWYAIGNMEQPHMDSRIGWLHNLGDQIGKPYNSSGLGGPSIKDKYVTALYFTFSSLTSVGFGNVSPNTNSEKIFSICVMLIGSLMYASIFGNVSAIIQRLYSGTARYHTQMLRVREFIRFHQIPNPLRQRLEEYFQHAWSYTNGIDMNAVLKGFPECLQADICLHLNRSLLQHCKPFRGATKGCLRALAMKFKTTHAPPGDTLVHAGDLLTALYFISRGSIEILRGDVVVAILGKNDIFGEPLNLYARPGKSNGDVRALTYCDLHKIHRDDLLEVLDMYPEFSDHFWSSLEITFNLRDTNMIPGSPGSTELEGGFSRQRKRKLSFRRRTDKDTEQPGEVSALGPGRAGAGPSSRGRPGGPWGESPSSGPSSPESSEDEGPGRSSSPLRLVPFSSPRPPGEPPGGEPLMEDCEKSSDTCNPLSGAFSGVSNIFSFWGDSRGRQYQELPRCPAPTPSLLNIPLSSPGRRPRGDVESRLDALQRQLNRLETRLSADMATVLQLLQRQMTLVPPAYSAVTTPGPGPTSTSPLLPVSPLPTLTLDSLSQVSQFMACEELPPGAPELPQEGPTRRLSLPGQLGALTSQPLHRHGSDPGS
row,SMILES,"hERG current change (%, negative = inhibition) at 1uM [%]"
1,COCCNC(=O)C(=O)Nc1ccc(Br)cc1,10.9
2,COc1cccc(C2=CC(c3cccs3)n3nnnc3N2)c1 (stereo not shown),11.6
3,O=C(CN1CCC(C(=O)c2ccc(F)cc2)CC1)NCc1ccccc1F,2.84
4,COc1ccc(C(=O)NCc2ccc(C)cc2)cc1S(=O)(=O)N1CCCc2ccccc21,-4.48
5,COc1ccc(OC)c(NC(=O)c2cccc(C)c2[N+](=O)[O-])c1,12
6,COc1ccc(/C=C(/NC(=O)c2ccccc2)c2nc3ccc(Cl)cc3[nH]2)cc1OC,-0.141
7,COc1ccccc1-c1nnc(NC(=O)CSc2nncn2C)s1,-3.38
8,COC(=O)NCc1ccc(CNC(=O)OC)cc1,4.93
9,CCCn1c(-c2cccc([N+](=O)[O-])c2)nc2c1c(=O)[nH]c(=O)n2Cc1ccccc1,-15.7
10,CCOc1ccc(-c2cc(CCCC(=O)NCc3ccco3)no2)cc1,1.43
11,O=C(Nc1cc([N+](=O)[O-])ccc1N1CCCC1)c1cccs1,-11
12,CN(C(=O)COC(=O)c1ccc(Cl)nc1)c1c(N)n(Cc2ccccc2)c(=O)[nH]c1=O,7.48
13,O=C(CSc1n[nH]c(-c2cccnc2)n1)Nc1ccc([N+](=O)[O-])cc1Br,2.55
14,Cc1ccc(S(=O)(=O)NC(=O)c2cccc(Br)c2)cc1,7.59
15,Cn1c(SCC(=O)Nc2ccc3c(c2)OCCO3)nnc1-c1ccccn1,6.5
16,CCOC(=O)C(Cc1ccccc1)NC(=O)CNC(=O)CNC(=O)OCc1ccccc1 (stereo not drawn) (Cbz-Gly-Gly-[ξF]-OEt),29.5
17,CSc1ccccc1-n1nnnc1SCC(=O)NCc1cccs1,2.6
18,COc1ccccc1CNC(=O)N/C=C/c1ccc(Cl)cc1,8.8
19,CCC(Sc1nc2n[nH]c(C)c2c(=N)n1-c1cccc(Cl)c1C)C(=O)N(CC)CC (stereo not shown),-6.09
20,Cn1ncc(Cl)c(Oc2ccccc2)c1=O,12.8
21,Cc1ccc2c(c1)COc1c3ccc(C(=O)O)cc3nn1-2,2.82
22,COc1ccccc1OCCn1c(=O)sc2ccccc21,18.2

row,SMILES,"hERG current change (%, negative = inhibition) at 1uM [%]"
1,C/C(=N\NC(=O)COc1ccccc1)c1cccs1,12.2
2,CN1C(=O)C(CC(=O)Nc2ccc(F)cc2)N(CCCc2ccccc2)C1=S (stereo not shown),3.93
3,O=C(NC(=S)NCCN1CCOCC1)c1cccc(Cl)c1,5.65
4,CCn1c(-c2nonc2NC(=O)c2ccccc2)nc2ccccc21,-1.97
5,Cc1nnc2c(NCC(C)c3ccccc3)nc3ccccc3n12 (stereo not shown),8.09
6,COc1ccc(-c2csc(N3CCN(c4cc5c(cc4Cl)nc(-c4ccncc4)n5CCOCCO)CC3)n2)cc1,12.9
7,Cc1ccc(C(=O)N2CCC3(CC2)Oc2ccc(Cl)cc2C(=O)C32CC(c3ccccc3)=NO2)s1 (stereo not shown),11.5
8,O=C(CN1CCN(CC(=O)Nc2ccccc2F)CC1)Nc1ccc2c(c1)OCCO2,-21.4
9,COc1ccc2oc(C(=O)OCc3nnc(-c4ccccc4)o3)c(C)c2c1,20.2
10,Cc1ccc(C)c(S(=O)(=O)N2CCN(C(C(=O)Nc3ccc(F)cc3)c3ccccc3)CC2)c1 (stereo not shown),11
11,COc1ccc(C(=O)Nc2ccc(N3CCN(c4ccc(OC)cc4)CC3)c(C#N)c2)cc1,16.1
12,CCOC(=O)CN(C(=O)CSc1nnc2c(n1)[nH]c1ccc(F)cc12)c1ccccc1,-7.59
13,CCOC(=O)NNC1CC(=O)N(c2ccccc2)C1=O (stereo not shown),9.15
14,Fc1ccc(NC(=S)NC23CN4CN(CN(C4)C2)C3)cc1,12.2
15,CCNC(=S)N/N=C/c1ccc(OCCOc2ccccc2C)cc1,8
16,O=C(O)c1ccc(N/N=C/c2c(F)cccc2Cl)cc1,15.1
17,CN(CC(=O)Nc1ccc(Cl)c(C(F)(F)F)c1)C(=O)CCN1C(=O)C2CC=CCC2C1=O (stereo not shown),-6.3
18,COc1ccc(OCC(=O)Nn2c(-c3cccc(OC)c3)nc3ccccc3c2=O)cc1,3.51
19,Cc1cc(C)cc(NC(=O)NCc2ccccn2)c1,5.86
20,Cc1ccc2c(c1)C(O)(CC(=O)c1cccnc1)C(=O)N2 (stereo not shown),-1.21
21,O=C(NCC1CCOCC1)c1cc(COc2cccc(C(F)(F)F)c2)on1,0.0457
22,CN(C)C(=O)Oc1c(Cl)cc(Cl)c2ccccc12,-41.1

row,SMILES,"hERG current change (%, negative = inhibition) at 1uM [%]"
1,O=C(CCS(=O)(=O)c1ccc(Br)cc1)N1CCN(Cc2ccccc2)CC1,7.56
2,Cc1ccc(C(=O)c2sc(Nc3ccccc3)c(C#N)c2N)cc1,8.25
3,Cc1cc(C)n(-c2ccc(C(=O)O)cc2[N+](=O)[O-])n1,7.54
4,COc1ccc(S(=O)(=O)N2CCN(CC(=O)Nc3ccc(F)c(F)c3)CC2)cc1,-20.3
5,COc1cc(/C=N\NC(=O)CNC(=O)C(c2ccccc2)c2ccccc2)ccc1O,12.5
6,COc1ccc(CSC(=N)N)cc1[N+](=O)[O-].Cl,6.74
7,O=C(COC(=O)C1c2ccccc2Oc2ccccc21)Nc1ccc2c(c1)OCO2,10.2
8,Cc1nnc(SC(C)C)n(N)c1=O,9.8
9,Cc1ccc(OC(C)C(=O)N2CC(=O)Nc3ccccc32)c(C)c1 (stereo not shown),10.7
10,Cc1cc2nc(C)c(Cl)c(=O)n2[nH]1,10
11,COc1ccc(CCNC(=O)COC(=O)/C=C/c2ccc(OCC#N)c(OC)c2)cc1,10.3
12,CN(CC(=O)N1CCc2[nH]c3ccc(F)cc3c2C1)CC1OCCO1,6.59
13,Cc1cc(C(=O)N2CCN(S(=O)(=O)c3ccccc3)CC2)c(C)o1,6.79
14,O=C(NCc1ccc2c(c1)OCO2)c1cc(-c2ccccc2)c(N2CCOCC2)s1,14.1
15,Cc1onc(-c2ccccc2Cl)c1C(=O)NC(C)c1ccccc1 (stereo not shown),14.8
16,O=c1cc(CSc2nnc(COc3ccc(Cl)cc3)o2)c2ccccc2[nH]1,1.76
17,Cc1ccc(S(=O)(=O)Nn2c(O)c(C=C3N=c4ccccc4=N3)sc2=S)cc1,5.45
18,Cc1cccc(-c2nn(-c3ccccc3)cc2C(=O)N(C)CC(=O)Nc2ccc(N3CCOCC3)cc2)c1,13.5
19,O=C(O)C(=O)O.OCCN1CCN(c2cc(-c3ccccc3)c3ccccc3n2)CC1,-17.6
20,Cc1nnc(SCc2ccc3c(c2)OCO3)s1,-3.47
21,O=C(COc1ccccc1)N1CCCCCCC1,5.76
22,CCc1nc2ccc(C(=O)N3CCN(c4cccc(OC)c4)CC3)cc2nc1CC,12.3

row,SMILES,"hERG current change (%, negative = inhibition) at 1uM [%]"
1,CC(C(=O)OCC(=O)c1ccc(Br)cc1)N1C(=O)C2C3CCC(C3)C2C1=O (stereo not shown),5.8
2,COc1cc(C(=O)Nc2ccc3c(c2)OCCO3)ccc1OC(C)C,3.1
3,NC(=O)c1ccc(NC(=S)NCc2ccco2)cc1,7.56
4,Cl.OC(CN1CC=C(/C=C/c2ccc(Br)cc2)CC1)c1ccccc1 (stereo not shown),8.59
5,O=c1c2cc(-c3ccccc3)sc2ncn1-n1cccc1,5.43
6,COc1ccc(-n2cc(CNCc3cnc4ccccn34)c(-c3cccc(F)c3)n2)cc1,7.09
7,O=C(CCl)N(Cc1ccccc1)c1ccccc1,8.67
8,CCN(CC)S(=O)(=O)c1cc(NC(=O)Cn2ncc(Cl)c(Cl)c2=O)ccc1C,10.1
9,Cc1ccc(C)c(N2CCN(C(=O)c3cc(S(=O)(=O)N4CCCC4)cn3C)CC2)c1,10.1
10,CCc1nc2nc(C)c(NS(=O)(=O)c3ccc(C)c(C)c3)c(=O)n2[nH]1,9.82
11,CN(CC(=O)Nc1ccccc1Cl)C(=O)c1cccc(S(=O)(=O)N2CCN(Cc3ccccc3)CC2)c1,11.8
12,CCN1CCCC1Cn1cnc2c([nH]c3ccc(C)cc32)c1=O (stereo not shown),-63.4
13,CCOCc1c(C(=O)OCC(=O)Nc2ccccc2C(N)=O)oc2ccccc12,0.493
14,COc1cccc(/C=N/NC(=O)C(=O)N2CCCC2)c1OC,13.3
15,Cc1ccc(C(=O)/C=C/c2ccc3ncccc3c2)cc1,10.8
16,Cc1cc(Cl)ccc1OCCCC(=O)N1CCCCC1,-1.97
17,CCC(C)NS(=O)(=O)c1ccc(-c2csnn2)s1 (stereo not shown),-4.09
18,COc1ccc2cc(Br)ccc2c1CC(=O)NCCCN1CCOCC1,0.112
19,CCCOc1ccc(C(=O)NCCC(=O)NCCCC(=O)OCC)cc1,-2.54
20,CCC(C)(C)NC(=O)c1ccc(S(=O)(=O)N(C)c2ccccc2OC)cc1,9.05
21,Nc1cc(N2CCNCC2)ccc1[N+](=O)[O-],5.5
22,C=CCNC(=O)N1CCC(c2nc3ccccc3s2)CC1,16.5
